Experimental data reported in paper PMC4336329 (PLoS ONE, 2015).
About 14,000 (4.5%) of roughly 310,000 compounds showed an effect of 50% or more. Effects have a minus sign here. This is one part of the list.

These compounds were tested against human ether-à-go-go-related gene (hERG) potassium channel (human, UniProt Q12809) (assay: primary screen, population patch clamp on CHO cells stably expressing hERG).
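Further: peak tail current of the secondary pulse compared with the same well before compound.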

human ether-à-go-go-related gene (hERG) potassium channel, sequence (Q12809 whole entry, looked up): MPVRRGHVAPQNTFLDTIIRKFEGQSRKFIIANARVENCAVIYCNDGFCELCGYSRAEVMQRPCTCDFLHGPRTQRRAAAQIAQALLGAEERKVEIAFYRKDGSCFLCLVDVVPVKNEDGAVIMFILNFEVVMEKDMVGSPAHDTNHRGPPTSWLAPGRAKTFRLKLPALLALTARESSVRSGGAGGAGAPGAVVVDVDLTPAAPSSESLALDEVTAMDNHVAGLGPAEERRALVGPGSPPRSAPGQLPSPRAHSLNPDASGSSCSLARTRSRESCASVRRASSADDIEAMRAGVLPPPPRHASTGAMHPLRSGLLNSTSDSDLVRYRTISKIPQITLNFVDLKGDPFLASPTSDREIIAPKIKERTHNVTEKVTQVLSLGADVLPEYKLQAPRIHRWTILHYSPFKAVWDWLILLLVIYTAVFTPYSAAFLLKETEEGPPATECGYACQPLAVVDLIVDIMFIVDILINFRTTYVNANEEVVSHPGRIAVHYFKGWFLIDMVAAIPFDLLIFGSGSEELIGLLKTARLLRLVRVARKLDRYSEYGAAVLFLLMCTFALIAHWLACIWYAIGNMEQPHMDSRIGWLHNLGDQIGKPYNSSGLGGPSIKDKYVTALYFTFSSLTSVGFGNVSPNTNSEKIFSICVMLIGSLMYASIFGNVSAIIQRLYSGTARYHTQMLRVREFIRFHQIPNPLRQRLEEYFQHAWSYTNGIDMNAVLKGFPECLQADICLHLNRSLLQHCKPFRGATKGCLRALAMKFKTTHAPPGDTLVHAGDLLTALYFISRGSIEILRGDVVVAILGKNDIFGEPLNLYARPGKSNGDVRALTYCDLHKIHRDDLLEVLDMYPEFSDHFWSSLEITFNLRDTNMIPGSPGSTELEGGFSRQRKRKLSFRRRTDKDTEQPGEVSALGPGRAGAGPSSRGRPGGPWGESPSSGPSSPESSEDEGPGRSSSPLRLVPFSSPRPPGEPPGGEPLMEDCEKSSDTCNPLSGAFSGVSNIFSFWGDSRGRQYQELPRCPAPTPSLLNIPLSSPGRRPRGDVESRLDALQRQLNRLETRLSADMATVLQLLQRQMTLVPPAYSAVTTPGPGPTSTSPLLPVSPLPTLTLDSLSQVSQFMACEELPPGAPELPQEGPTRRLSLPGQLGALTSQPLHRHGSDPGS

Compound | hERG current change (%, negative = inhibition) at 10uM [%]
COc1ccccc1Nc1nc(N)nc(CSCCO)n1 | 15
N#C/C(=C(/O)COc1ccc(Cl)cc1)c1nc2ccccc2s1 | 25
CC(C)OCCCNC(=O)c1c(N)n(/N=C/c2cccs2)c2nc3ccccc3nc12 | -7.45
CCCCCCC1CCC(C(=O)N2CCOCC2)CC1 (stereo not shown) | -7.5
CC(=O)Nc1ccccc1-c1nc2ccc(C(=O)N3CCN(c4ccccc4)CC3)cc2[nH]c1=O | -3.23
CCc1ccc(Nc2nnc(SCC(=O)NC(=O)CN3CCCC3=O)s2)cc1 | 4.35
c1ccc2c(c1)ccc1nnc(SCc3ccc4c(c3)OCCO4)n12 | 7.34
Cc1ccc2nc(-c3ccc4c(c3)NC(=O)CO4)cn2c1 | 14.8
COc1ccccc1C(=O)Nc1ccccc1C(=O)N1C(C)CCCC1C (stereo not shown) | 0.331
Cc1cc(NC(=O)Cn2cnc3c2c(=O)n(C)c(=O)n3C)n(-c2ccccc2)n1 | 4.12
COc1cc(N)c(C(O)c2nccc3cc(OC)c(OC)cc23)cc1OC (stereo not shown) | 13.9
CC1(C)CC(N2CN(C3CCCCC3)CC2=O)CC(C)(C)N1 | 16
Clc1ccc(-c2nnc(NCCN3CCCC3)c3ccccc23)cc1 | -71.3
CCOCCOC(=O)COc1ccc2c(-c3ccccc3)cc(=O)oc2c1 | -28.7
CCOc1ccc2ccccc2c1CNCCc1ccc(S(N)(=O)=O)cc1.Cl | -73.1
CN1CCN(c2ncnc3scc(-c4ccccc4Cl)c23)CC1 | -41.4
NC(=O)c1nnn(-c2nonc2N)c1-c1ccc([N+](=O)[O-])cc1 | 24.7
CC(C)NC(=O)Cn1nnc(-c2cccc(NC(=O)c3ccccc3F)c2)n1 | -1.23
Cc1c(Br)c(C(=O)NNC(=O)c2ccc(C(C)(C)C)cc2)nn1C | 12.7
CCOC(=O)CSc1nnc(-c2ccc(OC)cc2)n1CC | 7.84
N#Cc1c(NC(=O)CCC(=O)O)sc2c1CCCCC2 | 14.9
COCCNC(=S)NNC(=O)c1cccs1 | 16
O=C(CSc1nnc(-c2ccc(F)cc2)c2ccccc12)NCC1CCCO1 (stereo not shown) | -31.6
COCCCNC(=O)c1ccc2c(c1)nc(C)n2-c1cccc(C)c1 | 6.05
Cc1ccc(/C=N/N2CCN(c3ccncc3S(=O)(=O)N3CCCCC3)CC2)cc1 | 2.02
